From PubChem BioAssay AID2202238 (Ras Initiative Chemistry Research Team, Frederick National …, 2025)
This is one part of the list. These are further read-outs of the screen, such as a control signal, another cell line or another target. No call is given for them.

Target: GTPase KRas (Homo sapiens) (UniProt P01116)
Assay: Fragment capture on engineered cysteines, share of protein labelled (AID 2202238)
Set-up: protein at 5 µM with 500 µM competing thiol for 1.5 h
Settings: KRAS G12D cysteine mutants, disulfide tethering, MALDI-TOF labeling, stronger effect = higher value, fragment at 500 µM
[1] = measured here: G60C mutant labeling
[2] = measured here: G75C mutant labeling
[3] = measured here: H94C mutant labeling
[4] = measured here: I36C mutant labeling
[5] = measured here: L120C mutant labeling
[6] = measured here: M67C mutant labeling
[7] = measured here: M72C mutant labeling
[8] = measured here: N26C mutant labeling
[9] = measured here: N86C mutant labeling
[10] = measured here: P121C mutant labeling
[11] = measured here: S122C mutant labeling
[12] = measured here: S136C mutant labeling

Chain of UniProt P01116 (P01116 whole entry, looked up, the tested form may be a part): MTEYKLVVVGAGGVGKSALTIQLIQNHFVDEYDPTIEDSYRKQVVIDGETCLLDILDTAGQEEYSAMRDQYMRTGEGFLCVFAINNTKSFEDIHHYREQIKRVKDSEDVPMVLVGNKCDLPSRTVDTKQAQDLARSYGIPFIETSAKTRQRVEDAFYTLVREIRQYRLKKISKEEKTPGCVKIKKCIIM

Row | SMILES | percent labeling [1] [%] | percent labeling [2] [%] | percent labeling [3] [%] | percent labeling [4] [%] | percent labeling [5] [%] | percent labeling [6] [%] | percent labeling [7] [%] | percent labeling [8] [%] | percent labeling [9] [%] | percent labeling [10] [%] | percent labeling [11] [%] | percent labeling [12] [%]
1 | O=C1CC(Cc2ccc(C(=O)NCCS)cc2)C(=O)N1 (stereo not drawn) | 34.2 | 21.7 | 38.6 | 31.4 | 42.6 | 39.6 | 42.2 | 51.2 | 35.9 | 31.1 | 34.8 | 42.8
2 | O=C(Cc1csc(-c2sccc2Br)n1)NCCS | 30.6 | 11.5 | 12.3 | 5.9 | 21.6 | 34.8 | 38 | 19.9 | 4.7 | 6.2 | 3.9 | 8
3 | CN1C(=O)CCC(C(=O)NCCS)C1c1ccccc1 (stereo not drawn) | 43.3 | 12 | 40 | 33.5 | 34.2 | 41.9 | 22.8 | 35.2 | 23.4 | 36.8 | 32.3 | 61.3
4 | O=C(CCS)NCc1ncc(-c2ccc(F)cc2)[nH]1 |  | 15.3 | 51.2 | 46.7 | 36.1 | 48.3 | 42.6 |  | 20.8 | 31.3 | 28.4 | 38.3
5 | COC(=O)c1cc2c(n1C)CCN(C(=O)CCS)C2 |  | 16.4 | 30.2 | 34.3 | 35.6 | 32.3 | 35.9 |  | 19.5 | 24.1 | 29.6 | 44.2
6 | O=C(CCS)NCCc1noc2ccccc12 |  | 17.1 | 41.1 | 45.1 | 35.4 | 45.9 | 42.8 |  | 19.9 | 35.1 | 33.5 | 56.2
7 | CC(=O)NC(Cc1ccc2c(c1)OCO2)C(=O)NCCS (stereo not drawn) | 45.1 | 16.9 | 38 | 34.2 | 41.3 | 32.7 | 24.3 | 39.1 | 27.6 | 34.8 | 31.4 | 44.5
8 | O=C(NCCS)C1CCCN(C(=O)c2ccc3[nH]ncc3c2)C1 (stereo not drawn) | 38.2 | 15 | 31 | 33.8 | 24.5 | 44.2 | 21.4 | 38.3 | 25.1 | 26.8 | 27.9 | 41.1
9 | Cc1ccc(NC(=O)CCS)cc1NC(=O)CCN(C)C |  | 17 | 40 | 50.4 | 36.3 | 46.2 | 35.2 |  | 35 | 31.7 | 29.9 | 54.6
10 | Cc1cc(C)nc(-n2[nH]c(C(=O)NCCS)cc2=O)n1 | 20.5 | 7.4 | 20.3 | 10.3 | 47.8 | 17 | 9.4 | 25.1 | 10.4 | 24.7 | 31.2 | 25.2
11 | COc1ccccc1Nc1ccc(C(=O)NCCS)cc1 | 18.3 | 8.5 | 13.3 | 10.3 | 14.6 | 14.5 | 34.4 | 29.9 | 10.9 | 12.9 | 9.5 | 15.8
12 | Cn1nccc1C1(CNC(=O)CCS)CC1 |  | 11.8 | 29.3 | 39.2 | 22.4 | 31.9 | 16.6 |  | 20.3 | 38.6 | 33.9 | 48.2
13 | CC1(C)CN(C2(CNC(=O)CCS)CCCCC2)CCO1 |  | 25 | 42.2 | 45.4 | 28.8 | 48.3 | 39 |  | 29.4 | 31.7 | 26.9 | 62.6
14 | COc1ccc(-c2noc(C(=O)NCCNC(=O)CCS)n2)cc1 |  | 5.4 | 13.6 | 18.3 | 9 | 11.8 | 18.3 |  | 8.8 | 16 | 7.3 | 20.5
15 | CC1(C)CCc2cc(NC(=O)CCS)ccc2O1 |  | 15.6 | 20.7 | 24.2 | 24.6 | 13.7 | 55.8 |  | 13.8 | 13.3 | 11.9 | 37.6
16 | CC1Cc2ccccc2N1Cc1occc1C(=O)NCCS (stereo not drawn) | 8.2 | 6.8 | 7 | 7 | 6.9 | 6.5 | 0 | 7.6 | 5.3 | 6.8 | 0 | 7.1
17 | Cc1cc(C(=O)NCCS)[nH]c1C | 25.6 | 17.8 | 24.1 | 19.7 | 24.5 | 19.5 | 21.1 | 22.8 | 18.1 | 20.8 | 22.1 | 25.9
18 | CC(Cc1cnc2ccccc2n1)C(=O)NCCS (stereo not drawn) | 25.9 | 8.3 | 27.7 | 39.4 | 29.4 | 41.4 | 17.5 | 32.8 | 21.8 | 31.4 | 30.8 | 43.5
19 | O=C(CCS)NC1CCN(c2c(F)cccc2F)C1 (stereo not drawn) |  | 11.4 | 30.8 | 26.1 | 23.2 | 29.4 | 34.1 |  | 14 | 28.2 | 33.9 | 43.9
20 | O=C(NCCS)c1cc(COc2ccccc2F)on1 | 17.8 | 10.4 | 13.7 | 17.3 | 18.9 | 24.4 | 30.8 | 25.8 | 6.9 | 14.7 | 9.5 | 14.7
21 | COc1cc(OC)c2[nH]c(C(=O)NCCS)cc2c1 | 18.1 | 4.8 | 11.1 | 8.7 | 16.1 | 10.2 | 40.8 | 32.7 | 12.1 | 11 | 10.6 | 12.8
22 | CCCn1c(=O)n(CCC(=O)NCCS)c2ccccc21 | 50.4 | 21.6 | 42.4 | 39.8 | 41.9 | 43.3 | 36.7 | 37.9 | 21.8 | 41.6 | 33.3 | 65.7
23 | O=C(CCS)Nc1ccc(Oc2ccc(Cl)cc2)cn1 |  | 15.8 | 27.8 | 22.7 | 26.6 | 27.8 | 42 |  | 30.6 | 21.7 | 11.8 | 34.3

Row | SMILES | percent labeling [1] [%] | percent labeling [2] [%] | percent labeling [3] [%] | percent labeling [4] [%] | percent labeling [5] [%] | percent labeling [6] [%] | percent labeling [7] [%] | percent labeling [8] [%] | percent labeling [9] [%] | percent labeling [10] [%] | percent labeling [11] [%] | percent labeling [12] [%]
24 | Cc1ccc(CC2CN(C(=O)CCS)C2)cc1 |  | 18.3 | 36.6 | 32.5 | 22.4 | 23.8 | 47.6 |  | 20.9 | 29.8 | 29.8 | 48.4
25 | O=C1NCCN(C(=O)CCS)C1c1ccccc1 (stereo not drawn) |  | 14.6 | 36.1 | 34.2 | 34.2 | 52.9 | 31.2 |  | 31.5 | 32.7 | 36.8 | 66.8
26 | Cc1ccc(CN(C)C)cc1NC(=O)CCS |  | 15.6 | 42.7 | 55.7 | 24.8 | 44.9 | 33.7 |  | 32.7 | 30.6 | 28.2 | 54.8
27 | O=C(NCCS)c1cn(CCO)c(=O)[nH]c1=O | 29.9 | 17.3 | 31.9 | 25.2 | 40.9 | 35.9 | 24.3 | 44.2 | 25.5 | 32.4 | 40.2 | 41
28 | O=C(NCCS)c1cccn1Cc1ccccc1Cl | 25.6 | 11.7 | 13.4 | 9.3 | 15 | 12.2 | 34.5 | 24.9 | 7.1 | 12.3 | 9.9 | 17.1
29 | COc1ccc(OCCN2CCN(C(=O)CCS)CC2)cc1 |  | 14.8 | 31.5 | 33.4 | 25.5 | 38.7 | 22.7 |  | 31.3 | 30.7 | 27.8 | 50.8
30 | Cc1cc(Br)ccc1NC(=O)CNC(=O)CCS |  | 11.7 | 23.5 | 23.1 | 20.7 | 18.5 | 24.6 |  | 19.3 | 21 | 14.6 | 29.5
31 | O=C(NCCS)C1CCC2(CC1)COCCO2 (stereo not drawn) | 24.3 | 9.2 | 28.2 | 17.1 | 39 | 27.8 | 13.6 | 33.3 | 27.1 | 30.8 | 29.9 | 39.1
32 | O=C(NCCS)c1cccn1-c1c(Cl)cccc1Cl | 53.2 | 20.7 | 29.1 | 11.3 | 20.6 | 11.9 | 42.2 | 26 | 15.4 | 16.7 | 9.7 | 18.7
33 | CCn1ccnc1C1CCCCN1C(=O)CCS (stereo not drawn) |  | 14.3 | 37.7 | 39.3 | 26.1 | 46.2 | 18.7 |  | 23.4 | 28.3 | 39.1 | 59.3
34 | O=C(NCCS)c1ccc(Br)cc1-n1cnnn1 | 37.2 | 11.9 | 21.7 | 16.4 | 18.8 | 21.4 | 21.6 | 25.5 | 20.9 | 42.7 | 13.7 | 26.8
35 | O=C(CCS)NC1CCN(Cc2c[nH]c3ncccc23)CC1 |  | 7.3 | 28.9 | 43.9 | 18.9 | 49.1 | 13.1 |  | 11.8 | 19 | 15.5 | 38.6
36 | CN(Cc1ccco1)C(=O)NCC(=O)NCCS | 21.3 | 7.1 | 24 | 17 | 37.5 | 21.8 | 10.3 | 26 | 18.7 | 24.6 | 24.3 | 32.1
37 | O=C(CCS)N1CCN(Cc2cc3ccccc3o2)CC1 |  | 24.4 | 34.2 | 65.6 | 27.5 | 71.5 | 32.8 |  | 23.1 | 32.5 | 28.8 | 55.8
38 | Cc1nn(C)c2nc(-c3ccccc3)cc(C(=O)NCCS)c12 | 25.2 | 12.6 | 11.8 | 9 | 9.1 | 13.8 | 33.2 | 38.3 | 10.1 | 8.6 | 0 | 24.6
39 | O=C(CCS)N1CCOCC1c1ncn(Cc2ccccc2)n1 (stereo not drawn) |  | 13.3 | 36 | 33 | 34.6 | 46.5 | 29 |  | 13.8 | 31.1 | 29.8 | 54.6
40 | O=C(CCS)NCC(=O)Nc1cccc2cccnc12 |  | 12.6 | 18.9 | 22.6 | 30.4 | 39.8 | 32.3 |  | 8.7 | 24.7 | 25.5 | 37.7
41 | Cc1nn(CC(=O)NCCS)c2nc(C(C)C)cc(C(F)(F)F)c12 | 17.7 | 13.5 | 9.3 | 4 | 13.1 | 5.4 | 11.5 | 13.4 | 4.2 | 5.4 | 3.2 | 6.4
42 | Cn1ncc2cc(CNC(=O)CCS)cnc21 |  | 11.8 | 24.2 | 43.5 | 20.9 | 38.1 | 21.4 |  | 26.7 | 33.7 | 29.2 | 47.6
43 | COc1ccc2c(C)c(CCC(=O)NCCS)c(=O)oc2c1 | 35.8 | 14 | 22.7 | 19.8 | 19.7 | 16.6 | 28.1 | 31 | 15.9 | 17.4 | 10.1 | 20.8
44 | Cc1cc(N2CC(NC(=O)CCS)C2)cc(=O)o1 |  | 11.9 | 24.6 | 36.2 | 27.7 | 30.2 | 18.2 |  | 8.6 | 32 | 32.2 | 42.5
45 | O=C(NCCS)c1ccc(=O)n(-c2ccccc2F)c1 | 40.8 | 24.2 | 38.1 | 34.6 | 46.1 | 44 | 48.9 | 48.3 | 27.3 | 40.9 | 33.3 | 70.3
46 | Cc1nc2c(c(C)c1CC(=O)NCCS)c(=O)[nH]n2C | 29.6 | 14 | 30 | 22.6 | 31.2 | 24.4 | 19.8 | 31.9 | 23.9 | 30.2 | 28.7 | 34.9
